Consider 24 compounds from the supplement of paper PMC9135407.

In the assay the test system is primary human hepatic stellate cells (donor 1). In words: scaled lipid accumulation score (0 = DMSO-like, 1 = nortriptyline-like); higher = stronger HSC inactivation (lipid re-accumulation), active = hit call of the paper. The conditions noted are these: 48 h.
Setting [1] is: library stock concentration: 10 mM.
Where [2] appears, read: library stock concentration: 10.6 mM.
Where [3] appears, read: library stock concentration: 3.33 mM.
The mark [4] stands for this setting: library stock concentration: 1 mM.
The mark [5] stands for this setting: library stock concentration: 80 uM.
Where [6] appears, read: library stock concentration: 400 uM.
Setting [7] is: library stock concentration: 2 mM.

“And” between values parts separate entries of the source, which are not always exact repeats. Identical values can stand only once. Counter-ions that a name gives are not always drawn. In all, about 5,800 compounds went through this assay and about 620 (11%) showed activity.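 The calls were made as follows: active = score above a cut-off or among the top three wells of a plate; in these data no inactive exceeds 0.85.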 The list shows a part of the results, in another mix than the full data. Where only a bound is given, the exact number is not on record here.

As for `O=C(NCC1CCCCN1)c1cc(OCC(F)(F)F)ccc1OCC(F)(F)F` (configuration not stated) [Flecainide], the “scaled lipid accumulation score” value (library stock concentration: 4.8 mM) is inactive: ≤ -0.006.

`O=C(NCC1CCCCN1)c1cc(OCC(F)(F)F)ccc1OCC(F)(F)F` (configuration not stated) [Flecainide acetate]: the “scaled lipid accumulation score” value was inactive: ≤ 0. Also, the “scaled lipid accumulation score” value under setting [1] was inactive: 0.398. Further, the “scaled lipid accumulation score” value under setting [2] is inactive: 0.436.

In the case of `CC1CCc2cc(F)cc3c(=O)c(C(=O)O)cn1c23` (configuration not stated) [Flumequine], the “scaled lipid accumulation score” value was inactive: 0.005. Under setting [3], the “scaled lipid accumulation score” value is inactive: ≤ 0. Also, the “scaled lipid accumulation score” value (library stock concentration: 7.7 mM) was inactive: 0.01. Further, under setting [1], the “scaled lipid accumulation score” value was inactive: ≤ -0.001 and inactive: ≤ 0.

For `CCCC[C@H](C)C[C@H](O)/C=C/[C@H]1[C@H](O)CC(=O)[C@@H]1CCCC/C=C/C(=O)O` [Limaprost], the “scaled lipid accumulation score” value under setting [4] is inactive: ≤ 0.

On to `CCCCOc1ccc(OCCCN2CCOCC2)cc1` [Pramoxine HCl], for which the “scaled lipid accumulation score” value by setting is: under setting [3], inactive: ≤ 0; under setting [1], inactive: 0.369.

Turning to `CCCCOc1ccc(OCCCN2CCOCC2)cc1` [Pramoxine hydrochloride], the “scaled lipid accumulation score” value is inactive: 0.083. Besides, the “scaled lipid accumulation score” value (library stock concentration: 6.1 mM) was inactive: 0.261. Besides, the “scaled lipid accumulation score” value under setting [1] was inactive: 0.068.

Regarding `S=P(N1CC1)(N1CC1)N1CC1` [Thiotepa], the “scaled lipid accumulation score” value was inactive: ≤ -0.027 under setting [1] and inactive: ≤ 0 under setting [2].

For the compound `COc1cc(N)c(Cl)cc1C(=O)NC1CCN(Cc2ccccc2)CC1` [Clebopride maleate], the “scaled lipid accumulation score” value was inactive: 0.22. For the same compound, under setting [1], the “scaled lipid accumulation score” value was inactive: 0.021.

As for `O=C(Nc1cc(Cl)cc2c1[nH]c1cnccc12)c1cccnc1` [IKK Inhibitor X], the “scaled lipid accumulation score” value under setting [3] was inactive: ≤ 0.

For the compound `CCCCC/C=C\C/C=C\C/C=C\CCCC/C=C\CCC(=O)O` [cis-4,10,13,16-Docosatetraenoic Acid], the “scaled lipid accumulation score” value under setting [4] was inactive: ≤ 0.

For `CNC(=O)CN1CCC(Oc2cc3c(Nc4cccc(Cl)c4F)ncnc3cc2OC)CC1` [AZD8931 (Sapitinib)], the “scaled lipid accumulation score” value runs as follows: under setting [3], inactive: 0.28; under setting [1], inactive: 0.713.

With `CCCS(=O)(=O)Nc1ccc(F)c(C(=O)c2c[nH]c3ncc(Cl)cc23)c1F`, the “scaled lipid accumulation score” value was inactive: ≤ 0 under setting [5]; inactive: ≤ 0 and inactive: 0.028 under setting [6]; inactive: ≤ 0 and inactive: 0.042 under setting [7]; inactive: ≤ 0 under setting [3]; inactive: ≤ 0 under setting [1].

Turning to `CCCCC[C@H](O)/C=C/[C@H]1C=CC(=O)[C@H]1C/C=C\CCCC(=O)O` [8-iso Prostaglandin A2], under setting [4], the “scaled lipid accumulation score” value was inactive: ≤ 0.

Turning to `Nc1nc(N)nc(-c2cc(Cl)ccc2Cl)n1` [Irsogladine], the “scaled lipid accumulation score” value is inactive: 0.012 under setting [3] and inactive: ≤ 0 under setting [1].

For `Nc1nc(N)nc(-c2cc(Cl)ccc2Cl)n1`, the “scaled lipid accumulation score” value under setting [1] was inactive: ≤ 0.

Take `Nc1nc(N)nc(-c2cc(Cl)ccc2Cl)n1` [Irsogladine maleate]: the “scaled lipid accumulation score” value reads like this: (library stock concentration: 7.8 mM) inactive: ≤ 0; under setting [1], inactive: 0.011.

On to `CCN1CCCC1CNC(=O)c1cc(S(=O)(=O)CC)c(N)cc1OC` (configuration not stated) [Amisulpride], for which the “scaled lipid accumulation score” value under setting [3] is inactive: ≤ 0; the “scaled lipid accumulation score” value under setting [1] is inactive: ≤ 0 and inactive: 0.028.

For the compound `CCN1CCN(Cc2ccc(Nc3ncc4c(n3)N(C)c3ccccc3C(=O)N4C)cc2C(F)(F)F)CC1`, the “scaled lipid accumulation score” value under setting [5] was inactive: 0.012, the “scaled lipid accumulation score” value under setting [6] was inactive: 0.132, the “scaled lipid accumulation score” value under setting [7] was inactive: 0.243 and the “scaled lipid accumulation score” value under setting [1] was inactive: 0.479.

In the case of `O=C(Nc1cccc(Cl)c1)Nc1ncc(CCNc2ncnc3ccsc23)s1`, the “scaled lipid accumulation score” value was inactive: ≤ -0.005 under setting [6], inactive: ≤ -0.005 under setting [7] and inactive: ≤ -0.005 under setting [1].

As for `O=C(Nc1cccc(Cl)c1)Nc1ncc(CCNc2ncnc3ccsc23)s1` [SNS-314 Mesylate], the “scaled lipid accumulation score” value is inactive: 0.041 under setting [3] and inactive: 0.269 under setting [1].

Turning to `Nc1ncnc2c1c(-c1cccc(OCc3ccccc3)c1)cn2C1CC(CN2CCCC2)C1` (configuration not stated), under setting [1], the “scaled lipid accumulation score” value was inactive: 0.36.

For the compound `CCCCC[C@H](O)/C=C/[C@@H]1[C@H](CCCCCCC(=O)O)[C@H](O)C[C@H]1O` [8-iso Prostaglandin F1.beta.], under setting [4], the “scaled lipid accumulation score” value is inactive: ≤ 0.

Take `CCc1c(C(=O)NCCc2ccc(N3CCCCC3)cc2)[nH]c2ccc(Cl)cc12`: the “scaled lipid accumulation score” value is, setting by setting: under setting [3], inactive: ≤ 0; under setting [1], inactive: 0.385.

Regarding `COc1cc2ncnc(Nc3cc(Br)c(O)c(Br)c3)c2cc1OC`, the “scaled lipid accumulation score” value was inactive: ≤ 0 under setting [5], inactive: ≤ 0 under setting [6], inactive: ≤ 0 under setting [7] and inactive: 0.04 under setting [1].
